Measured values reported in US20070098715A1 (published 2007).

Assays:
[1] = molecular target: T1, Ten-M3 (Cur026) on a stable cell line (UniProt Q9P273 1-2699, limits assumed); experiment: fluorescence on Cur026 (Ten-M3) stable cell line, B cell clone supernatant, Cy5 anti-human IgG Fc
T1 construct: whole, on cells

[2] = molecular target: T2, Ten-M4 (Cur105) expressed endogenously on PC3 cell line (UniProt Q6N022 1-2769, limits assumed); experiment: fluorescence on PC3 cells (Ten-M4, Cur105), B cell clone supernatant, Cy5 anti-human IgG Fc; column Crossreact?
T2 construct: whole, on cells; also called Ten-M4 (CR105); PC3 cell line (Cur105)

[3] = molecular target: T2, Ten-M4 (Cur105) expressed endogenously …; experiment: fluorescence on PC3 cells (Ten-M4, Cur105), B cell clone supernatant, Cy5 anti-human IgG Fc
[4] = molecular target: T1, Ten-M3 (Cur026) on a stable cell line; experiment: fluorescence on Cur026 (Ten-M3) stable cell line, B cell clone supernatant, Cy5 anti-human IgG Fc; column Crossreact?

B1: Ten-M2-179 (antibody, IgG2, V domains shown)
VH: QVQLVESGGGVVQPGRSLRLSCAASGFTFSSYGMHWVRQAPGKGLEWVAFIWYDGSNKYYADSVKGRFTISRDNSKNTLYLQMNSLRAEDTAVYYCARDGSSGWYFFDYWGQGTLVTVSS
VL: DIVMTQTPLSLSVTPGQPASISCKSSQSLLHSDRQTYLFWYLQKPGQPPQLLIYEVSNRFSGVPDRFSGSGSGTDFTLKISRVEAEDVGVYYCMQSIQLPPTFGPGTKVDIK
notes: Fully human mAb from IgG2 kappa XenoMouse (B cell clone); also called Mab179
X Geo Mean [1]: 8.05 | X Mean [1]: 22.8 | binding result [2]: no binding | X Geo Mean [3]: 3.28 | X Mean [3]: 3.87

B2: Ten-M2-199 (antibody, IgG2, V domains shown)
VH: QVQLVQSGAEVKKPGASVKVSCKASGYTFTNYDINWLRQASGQGLEWMGWMNPDSGNTGYAQRFQGRVTMTRDTSISTAYMELSSLRSEDTAVYYCARYISSLHYYYYGMDVWGQGTTVTVSS
VL: DIQMTQSPSSLSASVGDRVTITCRASQSINSYLNWYQQKPGKAPRLLIYAASNLQSGVPSRFSGSGSGTDFTLTISSLQPEDFSTYYCQQSHNTPLTFGGGTKVEIK
notes: Fully human mAb from IgG2 kappa XenoMouse (B cell clone); also called Mab199
X Geo Mean [1]: 3.25 | X Mean [1]: 3.8 | binding result [4]: no binding | binding result [2]: no binding | X Geo Mean [3]: 3.27 | X Mean [3]: 3.86

B3: Ten-M2-120 (antibody, V domains shown)
VH: QVQLVESGGGVVQPGRSLRLSCAASGFTFSSYGMHWVRQAPGKGLEWVAVLWYDGSKKFYADSVKGRFTISRDNSKNTLYLQMNSLRAEDTALYYCARGPWNYYYYGMDVWGQGTTVTVSS
VL: EIVLTQSPGTLSLSPGERATLSCRASQSVISSYLAWYQQKPGQAPRLLIYNASNRATGIPDRFSGSGSGTDFTLTISRLEPEDFAVYYCQQYGSSPITFGQGTRLEIK
notes: also called Mab120
X Geo Mean [1]: 3.42 | X Mean [1]: 3.99 | binding result [4]: no binding | binding result [2]: no binding | X Geo Mean [3]: 3.34 | X Mean [3]: 3.96

B4: Ten-M2-140 (antibody, IgG2, V domains shown)
VH: QEQLVESGGGVVQPGRSLRLSCAASGFTFSSHGMHWVRQAPGKGLEWVAIIWYDGSKKFYADSVKGRFTISRDNSKNTLSLQMNSLRAEDTAVYYCARGPWNYYYYGMDVWGQGTTVTVSS
VL: EIVLTQSPGTLSLSPGERATFSCRASQSVISNYLAWYQQKPGQAPRLLIYNTSSRATGIPGRFSGGGSGTDFTLTITRLEPEDFAVYYCQQYGSSPITFGQGTRLEIK
notes: Fully human mAb from IgG2 kappa XenoMouse (B cell clone); also called Mab140; anti-Ten-M2 monoclonal antibody clone 140
X Geo Mean [1]: 3.13 | X Mean [1]: 3.66 | binding result [4]: no binding | binding result [2]: no binding | X Geo Mean [3]: 3.45 | X Mean [3]: 4.04

B5: Ten-M2-188 (antibody, IgG2, V domains shown)
VH: QVQLVQSGAEVKKPGASVKVSCKASGYTFTGYYMHWVRQAPGQGLEWMGWINPNSGGTNSAQRFQGRVTMTRDTSIYTAYMELSRLRSDDTAVYYCAREYRSGRYYNGMDVWGQGTTVTVSS
VL: DIQLTQSPSSLSASVGDRVTITCRASQDISNYLAWYQQKPGKVPKLLIYAASTLQSGVPSRFSGSGSGTDFTLTISSLQPEDIATYSCQKYSSTPFTFGPGTKVDIK
notes: Fully human mAb from IgG2 kappa XenoMouse (B cell clone)
X Geo Mean [1]: 3.16 | X Mean [1]: 3.7 | binding result [4]: no binding | binding result [2]: no binding | X Geo Mean [3]: 3.5 | X Mean [3]: 4.47

B6: Ten-M2-213 (antibody, IgG2, V domains shown)
VH: QVQLVQSGAEVKKPGASVKVSCKASGYTFTNYDINWVRQATGQGLEWMGWMNPNSGNTGYAQKFQGRVTMTRNTSIRTAYMELSSLRSEDTAVYYCARGPGGSFYYYYGMDVWGQGTTVTVSS
VL: DIQMTQSPSSLSASVGDRVTITCRASQSISSYLNWYQQKPGKAPNLLIYTASSLQSGVPSRFSGSGSGTVFTLTISSLQPEDFATYYCQQSSSTPFTFGPGTKVDFK
notes: Fully human mAb from IgG2 kappa XenoMouse (B cell clone); also called Mab 213
X Geo Mean [1]: 3.01 | X Mean [1]: 3.45 | binding result [4]: no binding | binding result [2]: no binding | X Geo Mean [3]: 3.33 | X Mean [3]: 3.92
